# Data from the supplement of paper PMC10126150.
# Values marked as one replicate rest on one cluster of the flow cell; about a third of the high ones do not repeat.
# Tested on: ATP
# Test: switch fluorescence ratio, 500 uM ATP over buffer (Cy3 cluster intensity, sum of 5 cycles each) (fold (ratio)); higher = stronger signal-on switching upon ATP binding; sequences stand for … in TCGTCGGCAGCGTCAGATGTGTATAAGAGACAGTTTTTTTTTTTTTTTTTTTTTTTTT…TC
# Details: aptamer strand: ATP DNA aptamer (quencher-CACCTGGGGGAGTATTGCGGAGGAAGG + anchor), 100 nM annealed; ATP concentration: 500 uM; one replicate
# Summary of the method: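 Exposure to 500 uM ATP lasted 15 min at 22 °C before imaging, and a selection-buffer image was taken beforehand, for Cy3-labelled switching-strand clusters on a modified Illumina MiSeq flow-cell annealed to 100 nM quencher-labelled ATP aptamer. Five buffer/ATP cycles were run with NaOH stripping and re-annealing between them. The fluorescence ratio per cluster is summed target-cycle over summed buffer-cycle Cy3 intensity, averaged per switch-domain sequence. Clusters outside 100-1000 RFU were excluded.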
row,Sequence,switch fluorescence ratio
1,AAATGCATTC,1.03
2,TCGGTTCATC,0.974
3,TAAGCGTATC,1.02
4,CTGCTGGATG,1.03
5,ACGGGGCAGG,1.07
6,CTTTTGATGC,0.97
7,TTCTATTTAG,0.969
8,ATATGTCGGG,0.977
9,TATCTCTGCA,1.68
10,CTATACTCT,1.06
11,CTAGAAGGCC,0.999
12,TATAAGGCGG,1
13,CCACACTCGT,1.03
14,ATACTTATGC,1.15
15,CATAGCCAAA,0.978
16,ATGGCGGAG,0.988
17,GAGACAAAA,1.03
18,CCCGGCAGAC,3.04
19,TATCGGGT,0.985
20,GTTAGCATGA,1.06
21,CTTTATCAAA,0.962
22,ATTGTGCTAT,1.01
23,GTTGTAATCT,1.03

row,Sequence,switch fluorescence ratio
1,AAGAATGGTG,1.02
2,AATGGGTAG,1.02
3,GAGCTTGATT,1.01
4,GGGGCGTTGC,1.04
5,GGGTGTAAAT,0.948
6,ACTCACCCG,2.41
7,CTTATATTGG,1.01
8,GCAAACGAGG,1.13
9,ACATTAAAAG,1.04
10,AAGGCATGTA,0.965
11,ACCTTGGCAT,1.06
12,ATTTTGAGCT,1.01
13,ACTCCTGACG,0.989
14,CAAGGATCGG,0.983
15,TTACGGCATA,2.08
16,GTCATAAACG,1.04
17,CTGTTGACTC,1.03
18,GCTGATGCTT,1.02
19,GTGACACTCA,1.03
20,CGCGTCGGAA,1.03
21,ACATGACGCT,1.04
22,CAAGAGAGGT,1.02
23,TCGTCAAGGT,1

row,Sequence,switch fluorescence ratio
1,GGGATCTTTC,1.03
2,TGGTGACGGC,1.12
3,AAGGTTAATC,0.964
4,CTAACAGGAG,1.01
5,TCTTCTAGAT,1.01
6,AGGATGTAAG,0.992
7,CGCTGAGATA,1.06
8,AGGCATGAAG,0.979
9,CAACCGGCAC,1.79
10,GGCAAAGATG,0.972
11,AGGTTCCGCG,1.12
12,GCATGGGCTT,0.989
13,ATCAGTTGTA,0.986
14,AGGGTCGTTA,1.02
15,CAAGCCAGCG,1.03
16,AAACCAG,0.921
17,AGCGGTTTAG,1.03
18,TGGCACTGT,1.03
19,TCAGAGCCAT,1.03
20,AGTTATCTAT,1.03
21,TTGCAAGCCC,1.25
22,CCTAAAGGGC,1
23,CATGTTTGCG,0.959

row,Sequence,switch fluorescence ratio
1,AACATGAGTA,1.01
2,GTGTGCATCC,0.999
3,CTGATATTCG,1.02
4,ATGTCATAGC,1.04
5,TCGTCATCTC,1
6,ATGTTATAG,1.06
7,AATAGCGCTC,0.979
8,GCGTGCCCGA,1.01
9,CTAGCTATA,1.13
10,TTCTGCCTTT,0.951
11,GACTTTGGCT,1.02
12,CGCAGTGTCT,1.04
13,TATAGTCGA,1.04
14,AATAGTTTGG,1
15,TAAATGGGGC,0.996
16,GTCCTCCATG,1.19
17,TTCTTCTGAG,1.06
18,ATATTGCGTG,1.02
19,CTATCAGGGT,0.974
20,ATTAGGCAAA,1.02
21,CACTGATTGT,1.02
22,AAGGAACTAT,1
23,ACGGCGAGTG,0.993

row,Sequence,switch fluorescence ratio
1,AGCGAGTGTT,0.985
2,CTACAGAAGT,1.04
3,CCACTAGCGT,1.04
4,GAAAATAAGG,0.996
5,CGCTTGATGA,1.01
6,ACCCGCCTTA,1.05
7,ATCAGAGG,1.01
8,GCCTGAATTA,1
9,CTGCCTAGCT,0.988
10,ACACTTTAGC,1.03
11,CGTGTGAGCT,1.01
12,ATAATGACCG,0.987
13,CACTTGCGAT,1.08
14,TGGATTGGAA,0.997
15,TATGCAGCGT,0.968
16,TATTGCCCCC,1.05
17,TGTATATATG,0.989
18,TATTGTGGAA,0.955
19,TGAACAATG,1
20,ATTAGGTT,0.986
21,GGTGTATATA,0.977
22,CCCAGACGAT,1.08
23,TACCGCGCCC,1.82

row,Sequence,switch fluorescence ratio
1,CTTAATGTGG,0.969
2,GAGCCGCCTA,1
3,CTCTTGGGGG,1.2
4,TAATTCATGG,0.967
5,CTTTTTCGGA,0.974
6,CGGCGCACTA,1.79
7,CCGTGACTTG,0.997
8,GAAATGGTTG,0.98
9,TTCTGGAGGG,0.957
10,GAGCCCACGC,0.973
11,AGAGTCAATC,1.04
12,GTATTCGCA,1.05
13,GGGCCTCTCT,0.946
14,CAGTACTATC,0.983
15,TGAATCCACT,0.988
16,CATTATCTTC,0.987
17,TTCCCCGGGT,1.61
18,CCTAAAGCGC,1.16
19,TTATTAACAT,1.05
20,GACATGAGAA,0.999
21,TGGGTGC,1
22,TTTAGACCTA,1.03
23,TGGCGTGAGG,0.97

row,Sequence,switch fluorescence ratio
1,GCGGGTTGAA,1.05
2,GCGGAGTCGT,0.963
3,CAGAGGAGCA,0.997
4,CCGTGGTTGC,0.972
5,TTATCTTCGC,1.1
6,CCCGTCGGTT,1.07
7,GCCTTAATCA,0.972
8,AGAGGCGTGC,1.01
9,ATCAAATACG,1.04
10,ACTGCGGTTC,1.13
11,TACGGTGTCG,1.04
12,GAACCTCGCT,1.03
13,TGGTCGTTCG,0.976
14,CTTGAGTGAG,0.988
15,ATTGAGCTC,1.03
16,GGCCGGAGGA,0.995
17,TCTTATCAAG,1.02
18,AGCTTTCTTG,0.962
19,CTATGATACC,1.05
20,GTGACGGGGA,0.991
